# The list shows a part of the results. Cleavage of a single-stranded DNA pool by Rep nickase domains was read by sequencing (3 µM enzyme, 1 h, 37 °C); shown is the middle of each 90-letter strand. The score is log2 (uncut reads / reads without enzyme); uncut sequences lie near 0, cut ones below; no hit call is given. Reads are scaled to the total; where an enzyme cuts many sequences, the uncut ones exceed 0.
# Tests used:
# Experiment in all cases: uncleaved DNA left, log2 of reads against the no-enzyme library (log2 ratio); higher = less cleavage (more negative = more Rep cleavage of the k-mer); sequences stand for … in CTCGTCCG…ACCGGAGA
# [1] = test system: T1, Rep nickase domain of Muscovy duck circovirus
# T1 sequence (residues 1-111, tag not shown): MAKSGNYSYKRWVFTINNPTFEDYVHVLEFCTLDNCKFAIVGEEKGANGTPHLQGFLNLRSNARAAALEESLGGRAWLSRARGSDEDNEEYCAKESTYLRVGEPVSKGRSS
# Experimental: (§1)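 A pool of 90-nt single-stranded DNAs with seven random bases just before the constant AC of the nick site (name = the seven bases) was cut by 3 µM recombinant His6-SUMO-tagged Rep nickase domain (300 nM DNA, 50 mM HEPES pH 8.0, 50 mM NaCl, 1 mM MnCl2, 1 h, 37 °C, three replicates). Uncut DNA was amplified and sequenced.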
# [2] = test system: T2, Rep nickase domain of banana bunchy top virus
# T2 sequence (residues 1-94, tag not shown): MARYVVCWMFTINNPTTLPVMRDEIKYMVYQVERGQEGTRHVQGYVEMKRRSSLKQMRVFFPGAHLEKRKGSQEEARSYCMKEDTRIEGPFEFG
# Experimental: as §1
# [3] = test system: T3, Rep nickase domain of cabbage leaf curl virus
# T3 sequence (residues 1-116, tag not shown): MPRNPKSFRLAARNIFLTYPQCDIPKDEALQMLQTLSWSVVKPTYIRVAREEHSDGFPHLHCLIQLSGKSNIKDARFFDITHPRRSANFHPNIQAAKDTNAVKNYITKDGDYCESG
# Experimental: as §1
# [4] = test system: T4, Rep nickase domain of chickpea chlorotic dwarf virus
# T4 sequence (residues 1-124, tag not shown): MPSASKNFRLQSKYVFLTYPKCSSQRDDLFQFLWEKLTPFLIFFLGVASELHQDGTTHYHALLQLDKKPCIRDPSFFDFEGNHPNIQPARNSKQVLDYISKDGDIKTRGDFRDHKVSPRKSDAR
# Experimental: as §1
# [5] = test system: T5, Rep nickase domain of faba bean necrotic yellows virus
# T5 sequence (residues 1-98, tag not shown): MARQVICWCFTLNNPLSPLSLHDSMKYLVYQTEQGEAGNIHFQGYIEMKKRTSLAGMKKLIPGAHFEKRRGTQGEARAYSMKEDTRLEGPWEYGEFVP
# Experimental: as §1
# [6] = test system: T6, Rep nickase domain of maize striate mosaic virus
# T6 sequence (residues 1-117, tag not shown): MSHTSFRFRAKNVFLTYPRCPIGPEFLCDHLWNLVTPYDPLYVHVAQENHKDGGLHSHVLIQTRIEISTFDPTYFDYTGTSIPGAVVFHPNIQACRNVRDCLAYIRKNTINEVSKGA
# Experimental: as §1
# [7] = test system: T7, Rep nickase domain of porcine circovirus 2
# T7 sequence (residues 2-116, tag not shown): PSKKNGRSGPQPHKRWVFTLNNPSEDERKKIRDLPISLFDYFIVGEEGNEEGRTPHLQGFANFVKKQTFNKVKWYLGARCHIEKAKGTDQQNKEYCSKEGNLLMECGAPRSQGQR
# Experimental: as §1
# [8] = test system: T8, Rep nickase domain of tomato yellow leaf curl virus
# T8 sequence (residues 1-136, tag not shown): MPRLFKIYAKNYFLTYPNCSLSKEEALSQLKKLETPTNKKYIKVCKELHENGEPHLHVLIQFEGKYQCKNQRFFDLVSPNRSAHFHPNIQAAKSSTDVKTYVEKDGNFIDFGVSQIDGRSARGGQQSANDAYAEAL
# Experimental: as §1
# [9] = test system: T9, Rep nickase domain of wheat dwarf virus
# T9 sequence (residues 1-137, tag not shown): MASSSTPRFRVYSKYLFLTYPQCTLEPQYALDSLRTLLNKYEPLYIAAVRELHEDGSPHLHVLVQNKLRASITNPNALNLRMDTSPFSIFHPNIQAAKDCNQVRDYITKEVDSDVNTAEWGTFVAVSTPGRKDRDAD
# Experimental: as §1
Sequence,uncleaved DNA left (log2) [1],uncleaved DNA left (log2) [2],uncleaved DNA left (log2) [3],uncleaved DNA left (log2) [4],uncleaved DNA left (log2) [5],uncleaved DNA left (log2) [6],uncleaved DNA left (log2) [7],uncleaved DNA left (log2) [8],uncleaved DNA left (log2) [9]
GTGTCTA,0.0322,0.0446,0.284,0.868,-0.0413,1.85,0.084,-0.0371,0.0801
ACAGCGA,-0.0603,-0.186,-0.322,0.839,-0.0331,0.177,0.0632,0.0492,-0.189
AAACATT,-0.0574,0.0237,-1.36,-2.52,-0.0503,0.338,-0.714,0.0993,-0.238
GGGTAGC,0.0776,0.128,0.835,1.83,-0.000806,2.16,0.234,0.129,0.232
CGTATAG,0.172,0.104,-0.651,-0.388,0.0512,-0.845,0.196,0.0783,0.00859
TCCCGTT,-0.06,0.13,0.143,-1.03,0.102,-0.309,-0.0581,-0.00741,0.00381
TCCGTGT,0.0737,0.0112,0.112,-0.181,-0.0417,-0.264,0.0586,0.122,0.00797
CAACTTG,-0.0033,-0.0771,-0.483,-1.63,0.0875,-0.956,-0.0388,-0.057,-0.0106
AGAATCT,0.111,0.066,0.246,-1,0.0454,0.272,-0.513,0.0525,0.122
GGCATTA,-0.0683,0.0243,0.769,1.62,-0.0345,1.98,0.183,0.0238,0.205
TACCATA,0.00673,0.0563,-0.307,-2.6,0.0152,-0.592,-0.628,0.0237,-0.00291
TAGAAGC,-0.0775,-0.000836,-0.3,-0.545,0.0358,-1.16,0.0298,0.123,-0.0769
AAAGTCA,-0.00202,-0.0385,-0.256,-1.67,-0.11,-0.685,-0.0635,0.00143,-0.106
ATGTTTG,0.145,0.00618,-0.387,-0.494,0.0577,-1.03,0.219,0.176,-0.0276
GGGTCAG,-0.0251,0.106,0.929,2.03,-0.11,2.21,0.136,-0.0226,0.131
ATATCGA,-0.0637,-0.0786,-0.477,-0.728,0.00964,-1.25,0.053,0.0731,0.0232
CGTGAAC,0.00697,0.0344,0.207,0.376,-0.0163,0.536,0.107,-0.0465,0.0297
CTTTGTA,-0.299,-0.127,-0.486,-1.59,-0.102,-1.06,-0.581,-0.109,-0.243
CCGCTGT,-0.0198,0.101,0.536,1.8,0.0782,1.7,0.059,-0.0305,-0.064
GTATATA,0.0796,0.139,0.298,0.876,0.141,1.68,0.111,0.183,0.194
TCGTATG,0.305,0.257,0.0337,0.00591,0.17,-0.102,0.327,0.103,0.189
TTGTAAA,0.0209,0.0181,0.353,0.689,0.0215,1.07,0.06,0.0972,-0.0388
TATGACA,0.0615,-0.0134,0.198,-2.08,0.0293,0.393,-0.0422,0.059,0.101
GACCACA,0.0907,0.126,0.393,-0.77,0.0065,0.285,-0.0143,0.0754,0.12
AGCAACG,0.00715,0.0315,-0.289,-0.0974,-0.00643,-0.502,0.123,-0.00125,-0.036
GGATCAT,-0.0388,-0.0482,0.795,1.91,-0.0616,2.21,0.0515,-0.0919,0.0883
GTACCCT,-0.137,-0.027,0.223,0.447,-0.11,1.62,-0.0306,-0.0612,0.0606
GCGAGAT,0.0571,0.097,0.409,1.21,0.00691,1.43,0.0333,0.0184,0.0731
